Laboratory results: PubChem BioAssay AID360 (National Center for Advancing Translational Sciences (NCATS), 2006)
About 550 (1.1%) of roughly 48,000 compounds were called active. About 4% were inconclusive and are not listed. Rule as the data show it: active = potency below about 15 µM; inconclusive = mostly about 16 µM to 33 µM; inactive = weaker than that. The list shows a part of the results.

target: Lysosomal acid glucosylceramidase (Homo sapiens) (UniProt P04062); assay: Glucocerebrosidase; settings: purified enzyme, resorufin glucoside fluorescence (screen aimed at inhibitors), 20 min;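 also: the screen sought inhibitors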
Sequence of UniProt P04062 (P04062 whole entry, looked up): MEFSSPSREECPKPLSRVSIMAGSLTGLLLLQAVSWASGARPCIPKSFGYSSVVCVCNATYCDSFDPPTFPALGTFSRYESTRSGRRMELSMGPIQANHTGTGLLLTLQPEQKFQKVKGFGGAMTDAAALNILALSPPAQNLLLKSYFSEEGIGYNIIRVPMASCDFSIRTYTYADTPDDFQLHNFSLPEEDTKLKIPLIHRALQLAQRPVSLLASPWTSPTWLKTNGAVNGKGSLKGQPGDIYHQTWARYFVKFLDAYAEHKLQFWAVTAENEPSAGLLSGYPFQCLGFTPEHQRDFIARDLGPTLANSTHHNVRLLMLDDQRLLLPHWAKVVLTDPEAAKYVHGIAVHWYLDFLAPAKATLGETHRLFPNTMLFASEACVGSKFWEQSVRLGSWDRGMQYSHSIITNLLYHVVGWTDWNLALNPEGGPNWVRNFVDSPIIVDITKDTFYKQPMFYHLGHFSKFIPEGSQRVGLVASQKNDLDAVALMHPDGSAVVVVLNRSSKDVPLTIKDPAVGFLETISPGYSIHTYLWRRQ
Summary of the method: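 Compounds titrated against 0.2 nM normal enzyme, 30 uM resorufin beta-D-glucopyranoside substrate, citrate/phosphate buffer with taurocholate and tween-20, pH 5.9. Reaction ran 20 min at room temperature; fluorescence (Ex 548/Em 600) gave AC50.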
Potency is read from the fitted curve at half-maximal effect.

Potency, inactive:
CCCCn1c(=O)c2c(c3ccccc31)OCC(=O)N2 > 76.9 µM
CC(NC(=O)CSc1ncccn1)c1ccccc1 (centres undefined) > 76.9 µM
CCOc1ccccc1C(=O)Nc1ccc(-c2nnc(-c3ccc(C)cc3)o2)cc1 > 76.9 µM
N#C/C(=C\C1CC=CCC1)c1nc2ccccc2[nH]1 (centres undefined)
O=C(CN1CCC2(CC1)OCCO2)c1ccc2cc[nH]c2c1 > 76.9 µM
CCC(C)NS(=O)(=O)c1ccc(OCC(=O)NCc2ccc3c(c2)OCO3)cc1 (centres undefined) > 76.9 µM
CS(=O)(=O)N(CC(O)Cn1c2ccccc2c2ccccc21)c1ccccc1 (centres undefined) > 76.9 µM
O=C(Oc1cccc(N2C(=O)CCC2=O)c1)C1CC(=O)N(c2ccc(Br)cc2)C1 (centres undefined) > 76.9 µM
Cc1cccc(OCc2nnc(SCc3nc4ccccc4c(=O)[nH]3)o2)c1 > 76.9 µM
CCOC(=O)c1sc(=S)n(CC)c1N > 76.9 µM
CCOC(=O)c1c(C)[nH]c(C)c1-c1ccccc1OC > 76.9 µM
COC(=O)c1sc2nc(CN3CCOCC3)nc(N3CCOCC3)c2c1C > 76.9 µM
N#Cc1cc2ccccc2nc1SCc1ccccn1 > 76.9 µM
Cc1nn(Cc2ccc(Cl)c(Cl)c2)c(C)c1NC(=O)c1noc2c1CCCCC2
O=C(O)CSc1nnc(-c2ccccc2O)n1Cc1ccccc1 > 76.9 µM
CCOC(=O)C1CCN(C(=O)c2cccnc2)CC1 > 76.9 µM
COc1ccc(CCNC(=O)Cn2c(=O)n(Cc3ccco3)c(=O)c3ccc(Cl)cc32)cc1OC > 76.9 µM
O=C(NC1CCCCC1)C1CCN(C(=O)NCc2ccccc2)CC1 > 76.9 µM
O=C(NCCN1CCCCCC1)C1CCN(S(=O)(=O)N2CCOCC2)CC1 > 76.9 µM
NC(=O)NCC12CC3CC(CC(C3)C1)C2 > 76.9 µM
COCCCn1c(SCC(=O)Nc2ccc(C(C)=O)cc2)nc2ccccc2c1=O > 76.9 µM
CCOC(=O)c1ccc(NC(=O)N2CCc3ccccc32)cc1 > 76.9 µM
COc1ccc(C2C(C(C)=O)=C(C)N=c3s/c(=C/c4ccc5c(c4)OCO5)c(=O)n32)cc1 (centres undefined) > 76.9 µM
CC(C)(C)n1ncc2c(=O)n(CC(=O)c3ccc(Cl)cc3)cnc21 > 76.9 µM
c1ccc(Sc2ncnc3c2oc2ccccc23)nc1 > 76.9 µM
CCOc1ccc(C(=O)Nc2cccc(-c3nc4cccnc4o3)c2)cc1Cl > 76.9 µM
COc1cccc2cc(C(=O)C3=C(O)C(=O)N(CCN4CCOCC4)C3c3cccs3)oc12 (centres undefined) > 76.9 µM
Cc1csc(NC(=O)CCS(=O)(=O)c2ccc(Br)cc2)n1 > 76.9 µM
O=C(NCc1ccco1)c1ccc(COCC(F)(F)F)cc1 > 76.9 µM
O/N=C(\COc1ccccc1O)c1ccccc1 > 76.9 µM
O=S(=O)(NCCc1csc(-c2ccccc2)n1)c1ccc2c(c1)OCCO2 > 76.9 µM
O=C1c2cccnc2C(=O)N1Cc1ccco1 > 76.9 µM
COc1ccc(C(=O)NC(=O)Nc2cc(C)ccn2)cc1 > 76.9 µM
CCc1nnc(NC(=O)CSc2nc3c(c(=O)n2-c2ccccc2OC)SCC3)s1 > 76.9 µM
COc1ccccc1N1CC(C(=O)OCC(=O)c2ccc(F)cc2)CC1=O (centres undefined) > 76.9 µM
O=c1c(-c2ccccc2)n[nH]c2ccccc12 > 76.9 µM
O=C(OCC(=O)N1CCN(c2ccccc2)CC1)C1=COCCO1 > 76.9 µM
CCOC(=O)C1C(=O)CC(C)(O)C(C(=O)OCC)C1c1cccc(OC(F)(F)C(F)F)c1 (centres undefined) > 76.9 µM
Cc1ccc(NC(=O)C2CCCN(S(=O)(=O)c3c(C)noc3C)C2)nc1 (centres undefined) > 76.9 µM
O=C(NCCC(=O)N1CCNC1=O)OCc1ccccc1 > 76.9 µM
O=C(c1ccccc1OCc1ccccc1Br)N1CCN(c2ncccn2)CC1 > 76.9 µM
Cc1cc(C)c2c(N)c(C(=O)N3CCN(c4ncccn4)CC3)sc2n1 > 76.9 µM
O=C(NCc1ccncc1)Nc1ccc(F)cc1 > 76.9 µM
O=C(O)CC(c1ccccc1)n1cccc1 (centres undefined) > 76.9 µM
Cn1c(=O)cc(OCCCC(=O)NC2CCCC2)c2ccccc21 > 76.9 µM
COc1ccc(CNC(=O)C(c2cccs2)N(C(=O)c2csnn2)C2CC2)cc1 (centres undefined) > 76.9 µM
O=C(O)CSc1nnc(Cc2ccccc2)n1Cc1ccccc1 > 76.9 µM
CSc1ccccc1-n1nnnc1SCc1ccccc1 > 76.9 µM
CCC(NC(=O)OC(C)(C)C)C(=O)Oc1ccc2c3c(c(=O)oc2c1)CCC3 (centres undefined) > 76.9 µM
CCSc1nc(N2CCOCC2)c2ccccc2n1 > 76.9 µM
COc1ccc2cc(C(=O)OC(C)C)sc(=O)c2c1OC > 76.9 µM
CCc1nc(SCC(=O)N2CCc3ccccc32)c2oc3ccccc3c2n1 > 76.9 µM
O=C(O)CCCCCNCc1ccncc1 > 76.9 µM
O=C(Nc1cccnc1)c1cccc(S(=O)(=O)N2CCOCC2)c1 > 76.9 µM
N#Cc1cc2sc3nnc(-c4ccncc4)n3c2cc1C#N > 76.9 µM
CCN(Cc1cc2cccc(C)c2[nH]c1=O)C(=O)c1ccccc1OC > 76.9 µM
Cc1ccc2nc(-c3cccc(-c4nc5ccc(C)cc5o4)n3)oc2c1 > 76.9 µM
CN1CCN(C(=O)c2c(O)c3cccc4c3n(c2=O)CC4)CC1 > 76.9 µM
CCOC(=O)Cc1nnc2c(Nc3ccc(Cl)cc3)nc3nonc3n12 > 76.9 µM
CCCn1c(SCC(=O)c2cc(OC)ccc2OC)nnc1C(C)C > 76.9 µM
O=C1C2C3CCCC3=C3CCCC3C2C(=O)N1c1ccc(Cl)cc1 (centres undefined) > 76.9 µM
COCCSc1ccccc1C(=O)Nc1ccncc1 > 76.9 µM
O=C(NC1CCCC1)c1sc(=S)n2c1[nH]c(=O)c1ccccc12 > 76.9 µM
Cc1ccsc1C=Nc1c(C)n(C)n(-c2ccccc2)c1=O > 76.9 µM
CCOc1ccc2nc(NCCNC(=O)C3CC3)c(C)cc2c1
COc1ccc(NC(=O)C2C(=O)NC3(C)CC2c2ccccc2O3)cc1 (centres undefined) > 76.9 µM
O=C1C2C3C=CC(C3)C2C(=O)N1Cc1cccnc1 (centres undefined) > 76.9 µM
CCOC(=O)CSc1nc2c([nH]c3ccccc32)c(=O)n1C > 76.9 µM
COc1cccc2cc(C(=O)N3CCN(c4ccccc4F)CC3)c(=O)oc12 > 76.9 µM
Cc1ccc(C(CC(=O)O)Nc2nc(N3CCCCC3)nc(N3CCCCC3)n2)cc1 (centres undefined) > 76.9 µM
Cc1ccc(S(=O)(=O)NCCC(=O)NCc2ccc3c(c2)OCO3)cc1C > 76.9 µM
O=C(c1cnccn1)N(c1ccccc1)C1(C(=O)NC2CCCCC2)CCCCC1 > 76.9 µM
Oc1ccc(CNc2ccccc2F)c2cccnc12 > 76.9 µM
CCOC(=O)Cc1nnc(NC(=O)c2ncn[nH]2)s1 > 76.9 µM
COc1ccccc1N1CCN(CC(=O)Nc2ccc(CN3CCCCC3)cc2)CC1 > 76.9 µM
CN1CCN(C(=O)c2cccc(S(=O)(=O)N3CCCCC3)c2)CC1 > 76.9 µM
CCC(C)n1c(C)nc2c(c1=O)c1nc3ccccc3nc1n2-c1ccc2c(c1)OCCO2 (centres undefined) > 76.9 µM
CCOC(=O)N1CCC(NS(=O)(=O)c2ccc3c(c2)CCN3C(C)=O)CC1 > 76.9 µM
c1ccc(-c2n[nH]nc2-c2ccccc2)cc1 > 76.9 µM
CC(=O)C1=C(O)C(=O)N(CCc2c[nH]c3ccccc23)C1c1ccco1 (centres undefined) > 76.9 µM
OCCNc1ncnc2ccc(Br)cc12
CCOc1ccccc1C(=O)N(CN1CCCC1=O)c1cccc(Cl)c1 > 76.9 µM
COC(=O)CCC(=O)Nc1ccc(NC(C)=O)cc1 > 76.9 µM
Cc1cc(C)n2cc(CSc3nnc(-c4ccccc4)o3)nc2n1 > 76.9 µM
Cc1sc2nc(CN3CCOCC3)nc(N3CCC(C(N)=O)CC3)c2c1C > 76.9 µM
Cn1c(=O)oc2cc(S(=O)(=O)Nc3cccc(C(=O)O)c3)ccc21 > 76.9 µM
CCn1c(COc2ccc3c(c2)OCO3)nnc1SCC(=O)c1ccccc1 > 76.9 µM
CCOC(=O)c1c(-c2cccs2)csc1NC(=O)CN1CC(C)OC(C)C1 (centres undefined) > 76.9 µM
COc1ccccc1-c1cc(C(=O)N2CCN(c3ccccc3OC)CC2)no1 > 76.9 µM
CCOC(=O)N1CCN(Cc2ccccn2)CC1 > 76.9 µM
O=C(NCN1C(=O)C2C3C=CC(C3)C2C1=O)Nc1nccs1 (centres undefined) > 76.9 µM
CCOC(=O)c1cc(CC)sc1NC(=O)CCC(=O)O > 76.9 µM
Cn1c(Nn2cnnc2)nc2ccccc21 > 76.9 µM
COc1ccc2cc(C(c3nnnn3C(C)(C)C)N3CCc4ccccc4C3)c(=O)[nH]c2c1 (centres undefined) > 76.9 µM
